Reference: ChEMBL document CHEMBL4888484, “Replenishing the malaria drug discovery pipeline: Screening and hit evaluation of the MMV Hit Generation Library 1 (HGL1) against asexual blood stage Plasmodium falciparum ,using a nano luciferase reporter read-out” (2022)
In all, about 150,000 compounds went through this assay and about 540 (0.36%) showed an effect of 50% or more. This is one part of the list.

Test system: Plasmodium falciparum
Experiment: Primary screen in NF54 nanoGlo assay, in single point, at 2uM, 72h; a lower Z score goes with more inhibition
Type: functional, Erythrocyte
Conditions: timepoint 72 hour

Structure (SMILES)	% Inhibition [%]	Z score
Cc1ccc2c(c1)n(Cc1ccc(Cl)cc1)c(=O)c1nc(C(=O)Nc3c(C)cccc3C)nn12	7	-0.8
CCNC(=O)Nc1ccc2c(c1)CN(S(=O)(=O)c1c(C)noc1C)CCO2	-9	1.76
CS(=O)(=O)c1ccc(CNC(=O)[C@H]2CC[C@H](C)CC2)s1	29	-3.33
COc1ccc(Cl)cc1NC(=O)N1CCN(c2cccnc2)C(=O)C1	16	-2.08
Cc1cc(=O)c(C(=O)N(C)Cc2ccco2)c(Cc2cccc(F)c2)n1CCCN1CCOCC1	2	-0.28
NC(=O)C[C@H]1CCN(c2nc(-c3ccccn3)nc3c2CCC3)C1	-8	1.56
Cc1ccnc(NC(=O)CC(C)(C)C)c1	-2	0.27
O=S1(=O)CC[C@@]2(CN(c3ncnc4ccsc34)CCO2)C1	3	-0.62
O=C(NCc1cccnc1)c1cccc(S(=O)(=O)N2CCCCC2)c1	-10	1.56
Cc1ccc(Cc2nnc(NC(=O)Cc3ccccc3Cl)o2)c(C)c1	-13	1.44
CCCc1cc(C(=O)N2CC(=O)NC3CCCCC32)[nH]n1 (stereo not drawn)	26	-2.94
CCCc1nc(CNC(=O)c2cncc(F)c2)cs1	-4	0.54
Clc1ccc(CNCCc2c[nH]cn2)cc1	36	-5.15
O=C(Cn1cnc2c(-c3ccc(F)cc3)nsc2c1=O)NCCc1ccc(Cl)cc1	-1	0.13
Cc1ocnc1C(=O)NCc1ccc(N2CCC[C@H](C)C2)c(Cl)c1	-5	0.61
Cc1[nH]c(=O)c(C#N)c(C)c1CCC(=O)N1CCC[C@@H]1Cn1ccnc1	-6	1.12
O=C(Nc1ccc(N2CCOCC2)nc1)c1cc(C2CC2)nc2ccccc12	-5	0.58
CC(CNC(=O)C(C)N1C(=O)CCC1=O)COCc1ccccc1 (stereo not drawn)	-5	0.63
O=C1CN(C(=O)Cc2c(F)cccc2Cl)C2(CCCC2)CN1	34	-4.65
C=CCC1(N(Cc2ccccc2)C(C)=O)CCCC1	27	-3.01
COc1ccc2c(c1)OC(C)CN(CCC(=O)N[C@H]1CCCCNC1=O)C2 (stereo partly drawn)	0	0.05
C[C@@]1(C(=O)NC2CCCCC2)CCC(=O)N1Cc1ccc2c(c1)OCO2	-6	0.7
COc1ccc(N[C@H]2CCCN(C(=O)C3(N4CCCC4)CCCC3)C2)cc1OC	-12	1.85
COc1ccc(N2C(=O)CN(C(=O)c3ccc(F)cc3F)CC23CCCC3)cc1	12	-2.06
Cc1nn(C(C)C)c(C)c1NCc1cscn1	-4	0.43
CC(C)N1CCNC(=O)[C@@H]1Cc1nc(-c2ccco2)n[nH]1	-6	0.62
CCCN(CC(=O)Nc1ccc(F)c(F)c1F)C(=O)Cc1ccc(OC)c(S(=O)(=O)N2CCOCC2)c1	-1	0.2

Structure (SMILES)	% Inhibition [%]	Z score
Cc1cc(C)c(-n2cccn2)c(CN2CCC(=O)NC[C@@H]2C)c1	-6	0.92
O=C(Cc1ccc(O)cc1)N1CCC([C@@H](O)CCc2ccccc2)CC1	-4	0.72
Cc1nn(C)c(C)c1S(=O)(=O)NC(=O)c1csc(C)c1C	-8	1.52
CCO[C@@H](C)C(=O)Nc1n[nH]c(Cc2cccc(F)c2)n1	31	-4.12
O=C(NCCNc1ncccn1)c1ccco1	-8	1.21
O=C(CCC1CCCC1)N1CC[C@@H](n2c(=O)[nH]c3cccnc32)C1	-14	1.8
O=C(NC1CCCc2ccccc21)C1CCc2[nH]cnc2C1 (stereo not drawn)	-17	2.84
CCOC(=O)C1CCN(C(=O)c2nn(-c3ccc(OC)cc3)c(=O)n(Cc3ccc(C(F)(F)F)cc3)c2=O)CC1	3	-0.45
CCC1CN(C(=O)c2cc(C(=O)OC)on2)CCC1c1ccccc1 (stereo not drawn)	5	-0.79
Cn1cc(C(=O)N2CCCC[C@H](c3ccccc3)C2)nn1	-14	2.11
CC1(C)OC(=O)N(CC(O)c2ccccc2)C1(C)O (stereo not drawn)	7	-0.77
Cc1cc(C(=O)NCCc2ncc[nH]2)cc(Cl)c1Br	8	-1.36
CCc1ocnc1C(=O)N[C@H]1CC(=O)N(CCCc2ccccc2)C1	6	-0.88
Cc1ccc(NC(=O)CN2C[C@@H]3CCC[C@H](C2)C(=O)N3)cc1	1	-0.17
CC(C)[C@H](NC(=O)c1cncc(F)c1)c1ncnn1C	-15	1.96
CCc1nnc(CN(C(=O)c2oc3cc(OC)ccc3c2C)C(C)C)o1	-8	1.58
CC(C)c1ccoc1C(=O)N1CCS(=O)(=O)c2ccccc2C1	-3	0.51
CCCCCN(CCO)C(=O)CC[C@H]1CCCCN1C	-4	0.56
NS(=O)(=O)Cc1noc(C2CC2)n1	-1	0.12
COC(=O)[C@H]1CN(c2ccccn2)C[C@@H]1c1ccc(F)cc1F	-10	1.56
CC(C)CCCCN1CC[C@@](NC(=O)OC(C)(C)C)(C(=O)O)C1	0	0
COc1cnc(CN(CCC2=CCCCC2)Cc2ccc(F)cc2)cc1O	-11	1.6
CC(C(=O)N1CCCc2ccccc21)N1CCCC(S(C)(=O)=O)CC1 (stereo not drawn)	-15	2.01
COC1(c2nc(-c3cccs3)no2)CCOCC1	-3	0.64
Cn1ncc(CNC(=O)N[C@@H]2CCc3cc(F)ccc32)n1	-12	2.22
O=C(CNc1ccc(C2CC2)c(F)c1)Nc1ccccc1	11	-1.37
CN(C(=O)c1ccc2c(c1)OCCCO2)[C@H]1CCS(=O)(=O)C1	4	-0.71
